Reference: PubChem BioAssay AID686978 (National Center for Advancing Translational Sciences (NCATS), 2013)
The whole screen tested about 420,000 compounds, of which about 64,000 (15%) were called active. The shares of active, inactive and inconclusive entries below differ from those in the screen. Calls follow the shape of the dose curve; as a rule, active = well fitted inhibition curve with a large enough effect; inconclusive = small, poorly fitted or top-dose-only effect; inactive = flat fitted curve, though single readings scatter. Potencies of inconclusive entries are left out as doubtful fits.

Assay: qHTS for Inhibitors of human tyrosyl-DNA phosphodiesterase 1 (TDP1): qHTS in cells in absence of CPT; also: nearly all actives have a fitted effect of over 55% in size
Details: DT40 Tdp1-/- hTDP1 cells, no CPT, ATP luminescence, 48 h; activity change, negative = growth inhibition: at 46.2 µM (top of the series) unless noted
Outline: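 Chicken DT40 Tdp1-/- cells complemented with human TDP1, screened without camptothecin (DMSO vehicle only), 400 cells/well. Compounds pin-transferred, cells incubated at 37 °C for at least 48 hr. Growth read as ATP-dependent luminescence (CellTiter-Glo, 30 min at RT).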
% is scaled to controls: 0 for no effect and ±100 for the full control effect; potency is read from the fitted curve at half-maximal effect; tags tell the direction and shape of the fitted curve.

Row | Structure (SMILES) | Potency | activity change, negative = growth inhibition
1 | COc1ccc(CNC(=O)CSc2nc3ccc(N)cc3s2)cc1 | inactive | –
2 | COC(CNC(=O)c1ccc2c(c1)nc(C)n2-c1cc(C)cc(C)c1)OC | – | inconclusive: -31.3% [inhibitor]
3 | COCC(C)n1c(C)cc(C(=O)CSc2nnnn2C2CCCC2)c1C (stereo unspecified) | inconclusive [inhibitor, single point] | –
4 | O=C1N(C2CCCC2)C[C@@H]2C[C@@H](c3cccn3-c3ccccn3)N3CCC[C@@]123 | inactive | –
5 | O=C(/C=C/c1ccc(Cl)cc1)N1CCN(c2ccc(Cl)cc2[N+](=O)[O-])CC1 | – | inconclusive: -32% [inhibitor]
6 | O=C(c1ccc(NS(=O)(=O)c2ccccc2)cc1)N1CCCCCC1 | inconclusive [inhibitor, partial curve] | –
7 | Cc1nc(C)c(-c2ccc(SCC(=O)Nc3ccccc3)nn2)s1 | active: 25.9 µM | –
8 | CC(c1nc2ccccc2c(=O)[nH]1)N1CCN(S(=O)(=O)c2ccc(F)c(Cl)c2)CC1 (stereo unspecified) | inconclusive [inhibitor, single point] | –
9 | CC1(C)OC(=O)N(c2ccccc2)C12C=Cc1c(ccc3ccccc13)O2 (stereo unspecified) | inconclusive [inhibitor, single point] | –
10 | Cc1ccc(S(=O)(=O)N2C[C@@H](C)[C@]3(C2)[C@H](O)[C@H](OC(=O)NC2CC2)C[C@H]2C(=O)N(c4ccccc4)C(=O)[C@H]23)cc1 | inconclusive [inhibitor, single point] | –
11 | C=CCn1c(COc2ccccc2F)nnc1SCC(=O)N1CC(=O)Nc2ccccc21 | inactive | –
12 | Cc1ccc(NC(=O)C2CCCN(S(=O)(=O)c3ccc4[nH]c(=O)ccc4c3)C2)cc1Cl (stereo unspecified) | inconclusive [inhibitor, partial curve, poor fit] | –
13 | CC1CCCC(C)N1C(=O)COC(=O)CSc1ccc([N+](=O)[O-])cc1 (stereo unspecified) | inconclusive [inhibitor, single point] | –
14 | O=C(NCC1CCCN(Cc2cccc(C(F)(F)F)c2)C1)c1ccc(F)cc1 (stereo unspecified) | inconclusive [inhibitor, partial curve] | –
15 | COc1ccc(CC(=O)Nc2nc3c(s2)CC(C)CC3)cc1 (stereo unspecified) | inconclusive [inhibitor, partial curve] | –
16 | CC(C)(C)C(=O)/C=C1\SCC(=O)N1CC(=O)N1CCN(c2ccccc2)CC1 | – | inconclusive: -33.2% [inhibitor]
17 | Cc1ccc(NC(=O)C2CCN(S(=O)(=O)c3cccnc3)CC2)cc1C | inconclusive [inhibitor, partial curve] | –
18 | Cc1ccc(CN(Cc2cc3cccc(C)c3[nH]c2=O)C(=O)N(C)C)cc1 | inconclusive [inhibitor, partial curve, poor fit] | –
19 | CCOC(=O)N1CCN(CC(O)COC2CC(C)CCC2C(C)C)CC1 (stereo unspecified) | inconclusive [inhibitor, partial curve] | –
20 | CC1(C(=O)Nc2ccc3c(c2)OCCO3)CSCC(=O)N1CCOc1ccccc1 (stereo unspecified) | inconclusive [inhibitor, single point] | –
21 | c1ccc(Nc2nc(-c3ccncc3)nc3ccccc23)cc1 | inactive | –
22 | Cc1ccc(NC2=NCC(=O)N2Cc2ccc3c(c2)OCO3)c(C)c1 | inconclusive [inhibitor, partial curve] | –

Row | Structure (SMILES) | Potency | activity change, negative = growth inhibition
23 | O=C(NC1CCCCC1)N1CCCC(c2nc(-c3cccs3)no2)C1 (stereo unspecified) | inconclusive [inhibitor, single point] | –
24 | COc1cc(SC)ccc1C(=O)Nc1cccc(C2OCCCO2)c1 | inconclusive [inhibitor, single point] | –
25 | C=CCSc1nc2ccccc2n1C(=O)/C=C/c1cc(OC)c(OC)c(OC)c1 | active: 2.06 µM | –
26 | O=C(N/N=C/c1cccc(O)c1)c1ccc(COc2cccc3cccnc23)cc1 | inconclusive [inhibitor, single point] | –
27 | C/C(CC(=O)Nc1ccccc1C#N)=N\NC(=O)c1ccncc1 | inactive | –
28 | CCC(c1nnnn1-c1ccc2c(c1)OCCO2)N1CCN(c2cc(C)ccc2C)CC1 (stereo unspecified) | inconclusive [inhibitor, single point] | –
29 | O=S(=O)(c1ccc2oc3ccccc3c2c1)N1CCCC1 | inconclusive [inhibitor, partial curve] | –
30 | Cc1ccc(C2=CC(=O)C[C@H](c3ccc(F)cc3)C2)cc1 | inconclusive [inhibitor, single point] | –
31 | O=C1CC(c2ccccc2)Oc2ccc(Cl)cc21 (stereo unspecified) | inconclusive [inhibitor, single point] | –
32 | Cc1ccc(Nc2nc(C(=O)NCCCN3CCOCC3)cs2)cc1 | inconclusive [inhibitor, single point] | –
33 | CC(=O)Nc1cccc(NC(=O)c2cc3c(=O)n4cccc(C)c4nc3n2C)c1 | – | inconclusive: -34.5% [inhibitor]
34 | Nc1nc2ccccc2cc1C(=O)NCCCCc1ccccc1 | active: 1.64 µM | –
35 | CCC(=O)N1CCCc2cc(S(=O)(=O)N3CCN(C4CCCCC4)CC3)ccc21 | inconclusive [inhibitor, partial curve, poor fit] | –
36 | C(=N\Nc1nc(-c2ccccc2)cs1)/c1ccncc1 | inconclusive [inhibitor, partial curve] | –
37 | O=C(NCCCN1CCCCCC1)c1cc2c(=O)oc3ccccc3c2s1 | inconclusive [inhibitor, partial curve, poor fit] | –
38 | C[C@]12CC[C@H](O)CC1=CCC1C2CC[C@@]2(C)C1CC[C@@H]2NC(=O)[C@@H](N)CO (stereo partly specified) | inconclusive [inhibitor, single point] | –
39 | O=C(NCc1cccc(Cl)c1)c1c2c(nc3ccccc13)C(=O)N(C1CCCCC1)C2 | active: 10.3 µM | –
40 | C[C@@H]1Cn2cnc(C(=O)Nc3ccccc3)c2C(=O)N1 | inactive | –
41 | CC(C)(C)OC(=O)NCCC(=O)Oc1ccc2ccc(=O)oc2c1 | inconclusive [inhibitor, single point] | –
42 | C=CCNC(=S)N/N=C/c1ccc(C(F)(F)F)cc1 | inconclusive [inhibitor, single point] | –
43 | CC1CN(C(=O)N2CCC(C(=O)NCCCc3ccccc3)CC2)c2cc(Cl)ccc2O1 (stereo unspecified) | active: 13 µM | –
44 | CCc1ccc(N2CC(C(=O)Nc3nccs3)CC2=O)cc1 (stereo unspecified) | inconclusive [inhibitor, partial curve] | –

Row | Structure (SMILES) | Potency | activity change, negative = growth inhibition
45 | CN1C(=O)[C@H]2[C@@H](/C=C/c3ccccc3)N3C(=O)CN(Cc4ccc(-c5ccccc5)cc4)C(=O)[C@@]3(Cc3ccccc3)[C@H]2C1=O | inconclusive [inhibitor, single point] | –
46 | O=C(Nc1ccc2c(c1)CCC2)c1cc(=O)[nH]c2ccccc12 | inactive | –
47 | CC12CN(C(=O)c3cccc([N+](=O)[O-])c3)C3(C#N)CC1CCC23C (stereo unspecified) | inactive | –
48 | CN(CC(=O)N1CCN(c2cccc(Cl)c2)CC1)S(=O)(=O)c1cccs1 | active: 16.4 µM | –
49 | CSc1ccc(NC(=O)NN(c2ccccc2)C2CCS(=O)(=O)C2)cc1 (stereo unspecified) | inactive | –
50 | COc1cc(NC(=O)c2ccc(C)c(Cl)c2)ccc1NC(=O)c1cc2ccccc2o1 | inconclusive [inhibitor, full curve] | –
51 | COc1cc(-c2cc(C(=O)Nc3cccc(S(=O)(=O)N(C)C)c3)c3ccccc3n2)cc(OC)c1OC | inactive | –
52 | Cc1nnc(Sc2cc(C(=O)NCCCN(C)Cc3ccccc3)c3ccccc3n2)s1 | inconclusive [inhibitor, single point] | –
53 | COc1ccc(N2C(=O)CSC2c2cccs2)cc1 (stereo unspecified) | – | inconclusive: -31.5% [inhibitor]
54 | CCN(CCNC(=O)C1CCC(=O)N1Cc1ccc(C)cc1)c1ccccc1 (stereo unspecified) | inactive | –
55 | Cc1ccc(S(=O)(=O)N2CCN(Cc3cc(C(C)C)ccc3O)CC2)cc1 | inconclusive [inhibitor, partial curve] | –
56 | COc1ccc(CN(C(=O)CN2C(=O)NC3(CCC(C)CC3)C2=O)C(C)Cc2cccs2)cc1 (stereo unspecified) | inconclusive [inhibitor, single point] | –
57 | COc1cccc(NC(=O)CCCOc2cc(=O)n(C)c3ccccc23)c1 | inconclusive [inhibitor, single point] | –
58 | C=CCn1c(=NC(=O)CN2C(=O)CCC2=O)sc2cccc(OC)c21 | inconclusive [inhibitor, single point] | –
59 | Cc1ccc(CNC(=O)CSc2ncc3c(n2)-c2cc(Cl)ccc2N(C)S3(=O)=O)cc1 | inconclusive [inhibitor, single point] | –
60 | Cc1cccc(NC(=O)CN2C(=O)N/C(=C/c3cc(C)n(C(C)C)c3C)C2=O)c1 | inconclusive [inhibitor, single point] | –
61 | COc1ccccc1Nc1nc(-c2c(C)[nH]c3ccccc23)cs1 | inconclusive [inhibitor, single point] | –
62 | CCOC(=O)c1c(N)sc(C(=O)Nc2ccccc2)c1C | active: 18.4 µM | –
63 | Cn1cc(-c2coc3c(C(=O)NCc4cccs4)cccc23)cn1 | inconclusive [inhibitor, single point] | –
64 | COc1cc(O)c(C(CC(=O)N2CCN(c3ccccc3)CC2)c2ccc3c(c2)OCO3)c(OC)c1 (stereo unspecified) | inconclusive [inhibitor, single point] | –
65 | Cc1c(C(=O)NCc2ccc(Cl)cc2)oc2ccc3c(c12)C(=O)CC(C)(C)O3 | active: 14.6 µM | –
66 | CCN1CCN(c2ncnc3c2cnn3-c2ccc(C)cc2C)CC1 | – | inconclusive: -30.9% [inhibitor]
